{
  "source": "PubChem BioAssay AID504832",
  "about": "(National Center for Advancing Translational Sciences (NCATS), 2011)",
  "note": "Several values for one entry are separate records, joined by “and”; a condition that tells them apart may be missing. Equal entries are not always repeated. The campaign covered roughly 310,000 compounds. About 18,000 (5.8%) were called active. Inconclusive means that the source gave no clear call. Such entries were picked first, then a sample of the others. Calls come from the whole dose curve; as a rule, active = well fitted inhibition curve with a large enough effect; inconclusive = small, poorly fitted or top-dose-only effect, or another doubt; inactive = no such curve, though single readings can be large or run the other way. Potencies of inconclusive entries are left out as doubtful fits. Potency is the fitted concentration of half-maximal effect; tags give direction and shape of the fitted curve.",
  "data": [
    {"assay": "Primary qHTS for delayed death inhibitors of the malarial parasite plastid, 48 hour incubation", "conditions": "P. falciparum luciferase growth in erythrocytes; series mostly up to 28.7 µM", "how_it_was_run": "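A one-generation exposure of luciferase-tagged malaria parasites in RPMI 1640/Albumax erythrocyte culture, 37 C and 5% CO2. Inhibition is inferred from decreased luminescence after adding detection reagent.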", "values": [
      {"smiles": "O=C(Cc1ccc(Cl)c(Cl)c1)Nc1ccc2[nH]c(=O)[nH]c2c1", "Potency": "inactive"},
      {"smiles": "CC(C)NC(=O)C(=O)Nc1cc2c3c(c1)C(C)C(=O)N3CCC2", "note": "(configuration not stated)", "Potency": "inactive"},
      {"smiles": "CCOC(=O)C1CCN(C(=O)CCc2ccc(S(=O)(=O)NCC(C)C)cc2)CC1", "Potency": "inconclusive [inhibitor, partial curve, poor fit]"},
      {"smiles": "COCCCN=Cc1c(-c2ccccc2)[nH]n(-c2nc3ccccc3s2)c1=O", "Potency": "inconclusive [inhibitor, partial curve]"},
      {"smiles": "CC(C)c1cc(NCCOCCO)n2c(nc3ccccc32)c1C#N", "Potency": "inconclusive [inhibitor, single point]"},
      {"smiles": "Cc1cc(=O)c(C(=O)N[C@@H](C(=O)N[C@@H]2C(=O)N3C(C(=O)O)=C(CSc4nnnn4C)CS[C@H]23)c2ccc(O)cc2)c[nH]1", "Potency": "inactive"},
      {"smiles": "CC(C)(C)C(=O)Cn1ncc(Cl)c(Cl)c1=O", "Potency": "inconclusive [inhibitor, full curve, poor fit]"},
      {"smiles": "O=C(OCCOCCN=C1NS(=O)(=O)c2ccccc21)c1ccc(F)cc1", "Potency": "inactive"},
      {"smiles": "CN(C)S(=O)(=O)n1cc(/C=C(\\NC(=O)c2ccccc2)C(=O)N2CCCC2)c2ccccc21", "Potency": "inconclusive [inhibitor, single point]"},
      {"smiles": "COc1cc(C2c3c(oc4ccccc4c3=O)C(=O)N2Cc2ccco2)ccc1O", "note": "(configuration not stated)", "Potency": "inconclusive [inhibitor, full curve]"},
      {"smiles": "CC(C)[C@H]1COCCS(=O)(=O)N1Cc1cccc(Cl)c1", "Potency": "inactive"},
      {"smiles": "CCOC(=O)c1sc(NC(=O)CSc2nc(-c3ccco3)cc(C(F)(F)F)n2)c(C(=O)OC)c1C", "Potency": "inconclusive [inhibitor, single point]"},
      {"smiles": "O=C(Cc1cccs1)Nc1nc(-c2ccc(F)c(F)c2)cs1", "Potency": "inconclusive [inhibitor, partial curve, poor fit]"},
      {"smiles": "CCc1ccc(NC(=O)CSc2nc(=O)n(CCCN(C)C)c3c2CCC3)cc1", "Potency": "inconclusive [inhibitor, single point]"},
      {"smiles": "O=C(CN(C(=O)c1csnn1)c1ccc(Cl)cc1)NCCc1ccccc1", "Potency": "active: 13.1 µM"},
      {"smiles": "CCCCc1oc2ccccc2c1C(=O)c1cc(I)c(OCCN(CC)CC)c(I)c1", "Potency": "active: 8.49 µM and active: 8.28 µM"},
      {"smiles": "Cc1cccc(NC(=O)Nc2ccc([N+](=O)[O-])cc2)n1", "Potency": "inactive"},
      {"smiles": "Cc1ccc(CNC(=O)CCS(=O)(=O)c2ccc3c(c2)NC(=O)C(C)S3)cc1", "note": "(configuration not stated)", "Potency": "inactive"},
      {"smiles": "c1ccc2c(c1)nc(N1CCOCC1)c1ccccc12", "Potency": "inconclusive [inhibitor, full curve, poor fit]"},
      {"smiles": "COc1cc2cc(C(=O)N/N=C/c3ccc(F)cc3)[nH]c2cc1OC", "Potency": "inconclusive [inhibitor, partial curve, poor fit]"},
      {"smiles": "CCc1ccccc1NC(=O)C1(S(=O)(=O)c2ccc(C)cc2)CC1", "Potency": "inactive"},
      {"smiles": "NC(=O)C1CCN(c2nc(-c3cccc(Br)c3)cs2)CC1", "Potency": "inconclusive [inhibitor, single point]"},
      {"smiles": "O=[N+]([O-])c1cccc(-c2ccc(/C=N/NC(=S)Nc3ccccc3)o2)c1", "Potency": "inconclusive [inhibitor, full curve, poor fit]"},
      {"smiles": "Cc1ccc(OCCC(=O)OCC(=O)Nc2ccc(F)cc2)cc1", "Potency": "inactive"},
      {"smiles": "COc1ccc(CN2CCCCC2c2cccnc2)c(OC)c1C", "note": "(configuration not stated)", "Potency": "inconclusive [inhibitor, single point]"},
      {"smiles": "O=C(NN1CCOCC1)c1ccco1", "Potency": "inactive"},
      {"smiles": "O=C(O)c1cccnc1", "Potency": "inconclusive [inhibitor, partial curve, poor fit]"},
      {"smiles": "CCOC(=O)c1c(CSc2ccccc2)oc2cc(Br)c(O)c(CN(C)C)c12", "Potency": "active: 2.62 µM"},
      {"smiles": "O=C(CCCNS(=O)(=O)c1ccc(Cl)c(Cl)c1)NCCc1ccccn1", "Potency": "inconclusive [inhibitor, partial curve, poor fit]"},
      {"smiles": "CCOC(=O)Cc1nnc(NC(=O)CSc2nnc3c4ccccc4n(C(C)C)c3n2)s1", "Potency": "inconclusive [inhibitor, single point]"},
      {"smiles": "O=c1c2nncn2c2cccnc2n1CCNc1ncc(C(F)(F)F)cc1Cl", "Potency": "inconclusive [inhibitor, partial curve, poor fit]"},
      {"smiles": "Fc1cccc(Cl)c1CSc1nnc2ccccn12", "Potency": "inactive"},
      {"smiles": "Cc1ccccc1-n1cc[nH]c1=S", "Potency": "inactive"},
      {"smiles": "COc1ccc(N(C(=O)c2cccnc2)S(=O)(=O)c2ccc(OC)c(OC)c2)cc1", "Potency": "inactive"},
      {"smiles": "O=C(NC1CCCC1)c1cccc(Cn2cc([N+](=O)[O-])cn2)c1", "Potency": "inactive"},
      {"smiles": "Cc1c(CNC(=O)C2CC2)c(-n2cccc2)n(Cc2ccccc2)c1C", "Potency": "inactive"},
      {"smiles": "O=c1oc2cc(Br)ccc2n1Cc1ccccc1", "Potency": "inactive"},
      {"smiles": "Cc1ccc(Sc2ncccc2NC(=O)c2ccccc2Cl)cc1", "Potency": "inactive"},
      {"smiles": "CCN(c1ccccc1)S(=O)(=O)c1ccc(Cl)c(NC(=O)CSc2nncn2C)c1", "Potency": "inconclusive [inhibitor, partial curve, poor fit]"},
      {"smiles": "COc1ccc(CNC(=O)C(c2cccs2)N(Cc2ccco2)C(=O)Cc2cccs2)cc1", "note": "(configuration not stated)", "Potency": "active: 13.1 µM"},
      {"smiles": "Cc1ccc(NC(=O)C2CC(=O)N(CCc3ccccc3)C2)cc1Cl", "note": "(configuration not stated)", "Potency": "inconclusive [inhibitor, single point]"},
      {"smiles": "O=S(=O)(c1ccc(OCC2CO2)cc1)c1ccc(OCC2CO2)cc1", "note": "(configuration not stated)", "Potency": "inactive"},
      {"smiles": "Nc1nc(Nc2ccccc2)nc2ccccc12", "Potency": "active: 3.29 µM"},
      {"smiles": "CN1CCN(CCCNC(=O)c2ccc3c(c2)N(Cc2ccc(F)cc2)CCS3)CC1", "Potency": "inconclusive [inhibitor, single point]"},
      {"smiles": "O=C(Cc1ccccc1F)Nc1nc(-c2cccnc2)cs1", "Potency": "inconclusive [inhibitor, partial curve, poor fit]"},
      {"smiles": "CCCCN(CCCC)C(=O)CSc1nnc(-c2cc(OC)c(OC)c(OC)c2)o1", "Potency": "inconclusive [inhibitor, partial curve]"},
      {"smiles": "CCn1c(CN2CCCCC2)nc2cc(S(=O)(=O)N3CCCCC3)ccc21", "Potency": "inconclusive [inhibitor, single point]"}
    ]}
  ]
}
